# Reference: patent US12630599B2, “CA2 compositions and methods for tunable regulation” (Obsidian Therapeutics, Inc., priority 2019, dated 2026)
# B1: OT-001895: constitutively expressed CAR IL12 construct (protein)
# chain: IWELKKDVYVVELDWYPDAPGEMVVLTCDTPEEDGITWTLDQSSEVLGSGKTLTIQVKEFGDAGQYTCHKGGEVLSHSLLLLHKKEDGIWSTDILKDQKEPKNKTFLRCEAKNYSGRFTCWWLTTISTDLTFSVKSSRGSSDPQGVTCGAATLSAERVRGDNKEYEYSVECQEDSACPAAEESLPIEVMVDAVHKLKYENYTSSFFIRDIIKPDPPKNLQLKPLKNSRQVEVSWEYPDTWSTPHSYFSLTFCVQVQGKSKREKKDRVFTDKTSATVICRKNASISVRAQDRYYSSSWSEWASVPCSGGGGSGGGGSGGGGSRNLPVATPDPGMFPCLHHSQNLLRAVSNMLQKARQTLEFYPCTSEEIDHEDITKDKTSTVEACLPLELTKNESCLNSRETSFITNGSCLASRKTSFMMALCLSSIYEDLKMYQVEFKTMNAKLLMDPKRQIFLDQNMLAVIDELMQALNFNSETVPQKSSLEEPDFYKTKIKLCILLHAFRIRAVTIDRVMSYLNASGSGSGSGSGSGSGSGSGSGSGSGSGSGSGSTTTPAPRPPTPAPTIASQPLSLRPEACRPAAGGAVHTRGLDFACDIYIWAPLAGTCGVLLLSLVITLYCGS
# Experiments:
# Format in all cases: cell-based
# primary human T cells [1] = test: Membrane bound IL12 expression within the CAR+ gate, 100 μM acetazolamide vs vehicle (Example 2, Table 11); settings: 20 hours
# Experimental: On day 0, primary human T cells were stimulated with Dynabeads (T-expander CD3/CD28) at a 3:1 bead: cell ratio in media containing 10% fetal bovine serum (FBS). The next day, lentivirus produced with constructs OT-002007, OT-002008, OT-002113, OT-002009, OT-002010, OT-002012, or OT-002113 were added in the presence of reduced serum (5% FBS). On day 2, the cells were diluted 1:2 with fresh 10% FBS media. […] After overnight incubation, transduction efficiency was analyzed by flow cytometry using CD19-Fc to detect surface CAR expression. Surface IL12 expression within the CAR+ cell gate was detected with an anti-IL12p70 antibody (BD, Franklin Lakes, NJ).
# primary human T cells [2] = test: Transduction efficiency: surface CD19 CAR expression by flow cytometry using CD19-Fc (% CAR positive cells); settings: Example 2
# Nalm-6 cells = test: 48 hour cytotoxicity assay, T cells co-cultured with Nalm-6 cells (NucRed), Incucyte (Example 4, Table 14)
# From the text: The following constructs were transduced into T cells: OT-001356 (nucleic acid sequence SEQ ID NO: 6081 encodes two amino acid sequences, first is SEQ ID NO: 6082 (nucleic acid sequence SEQ ID NO: 6083) second is SEQ ID NO: 6084 (nucleic acid sequence SEQ ID NO: 6085)), OT-001356 (amino acid sequence provided as SEQ ID NO: 6092 and nucleic acid is SEQ ID NO: 6093) OT-001407 (amino acid sequence provided as SEQ ID NO: 6086 and nucleic acid is SEQ ID NO: 6087), OT-001895, OT-002011, OT-002111, OT-0020%, OT-02171. The cells were expanded for 10 days and utilized for cytotoxicity assays. Percentage of CAR positive cells obtained with each of the constructs was as follows: OT-001356: 45.3%; OT-001407, OT-001895: 29.4%, OT-002011: 24.3%, OT-002111: 19.6%, OT-0020%: 6.08%, OT-002171: 13.3%. For cytotoxicity assays, T cells were thawed and co-cultured with Nalm-6 cells (stably expressing NucRed) at different T cells to Nalm-6 cell culture ratios. Target cell viability was determined by measuring cellular fluorescence over time using an Incucyte assay and the results are shown in Table 14.
molecule,measurement,setting,value
B1,"IL12 Geometric Mean within CAR+ Gate, DMSO",primary human T cells [1],140686
same,CAR,primary human T cells [2],34.3
same,Average Total Nalm6-NucRed Area after 48 hour at E:T ratio of 3:1,"Nalm-6 cells; E:T ratio 3:1, 48 hour","43,856"
same,Average Total Nalm6-NucRed Area after 48 hour at E:T ratio of 10:1,"Nalm-6 cells; E:T ratio 10:1, 48 hour","38,089"
